Patent US20090291910A1, “AGENT AND FOOD FOR PREVENTING/IMPROVING FUNCTIONAL DIGESTIVE DISORDER” (AJINOMOTO CO., INC, priority 2004, published 2009)

Tests used:
[1] = tested on: vagus nerve gastric branches afferent activity
[2] = tested on: vagus nerve gastric branches afferent activity; test: activation of vagus nerve by intragastric MSG when mucous membrane serotonin is depleted or NO synthesis is inhibited; type: in vivo, SD (IGS) rats
Description: To study the activation of vagus nerve by intragastric administration of monosodium glutamate when mucous membrane serotonin was depleted or NO synthesis was inhibited, the following experiments (A) and (B) were performed.
SD (IGS) rats (male, 8- to 10-week-old: CHARLES RIVER LABORATORIES JAPAN, INC.) were use for the experiment. After fasting for 15-17 hr, the rats were subjected to laparotomy under urethane anesthesia (1 g/kg, i.p.) to expose ventral vagus nerve gastric branches, and the afferent activity was recorded according to the method (Niijima A., et al., Physiol Behav. 1991 May; 49(5): 1025-8.).
(A) P-chlorophenylalanine (PCPA) was dissolved in 5% CMC solution, and administered at 200 mg/kg/rat twice a day for 2 days (intraperitoneal administration). The final administration of PCPA was performed 15 min before the administration of MSG aqueous solution (150 mM; intragastric administration). (B) NG-nitro-L-arginine methyl ester (L-NAME) was dissolved in saline, and administered at a rate of 10 mg/kg/rat from the cannula dwelled in the femoral vein 15 min before administration of MSG aqueous solution.

Nc1nc2c(ncn2[C@@H]2O[C@H](COP(=O)([O-])[O-])[C@@H](O)[C@H]2O)c(=O)[nH]1.[Na+].[Na+] [GMP, sodium guanylate]
activation of vagus nerve gastric branches ([1]; GMP 10, 30, 60 mM aqueous solution intragastric 2 mL/rat, FIG. 1C): dose-dependently activates vagus nerve gastric branches

COC(=O)[C@@H](N)CCCNC(=N)N[N+](=O)[O-] [L-NAME, NG-nitro-L-arginine methyl ester]
effect of pretreatment on enhancement of nervous activity after intragastric MSG ([2]; L-NAME 10 mg/kg/rat femoral vein 15 min before MSG, FIG. 2B): same phenomenon as in (A)

N[C@@H](Cc1ccc(Cl)cc1)C(=O)O (racemic) [PCPA, P-chlorophenylalanine]
effect of pretreatment on enhancement of nervous activity after intragastric MSG ([2]; PCPA 200 mg/kg/rat i.p. twice a day for 2 days, MSG 150 mM, FIG. 2A): eliminates sustained enhancement of nervous activity

N[C@@H](CCC(=O)O)C(=O)[O-].[Na+] [monosodium glutamate]
activation of vagus nerve via 5-HT3 receptor at the terminal of the vagus nerve gastric branches ([1]; MSG 150 mM aqueous solution intragastric 2 mL/rat): activates vagus nerve
